Some of the results follow.
What follows are sequences tested against T1, MBP-FoxP1dN (Mus musculus, UniProt P58462 326-579) (assay: PD-seq (MBP pull-down with sequencing); 20 mM Tris-HCl pH 7.5, 100 mM NaCl, 1.5 mM MgCl2, 0.4 uM protein, 0.1 uM dsDNA library, 30 min, room temperature, amylose pull-down; high values mean tight binding). Details: protein: recombinant; tags: His6-MBP; chain copies: 2; dsDNA, one strand shown.
T1 sequence: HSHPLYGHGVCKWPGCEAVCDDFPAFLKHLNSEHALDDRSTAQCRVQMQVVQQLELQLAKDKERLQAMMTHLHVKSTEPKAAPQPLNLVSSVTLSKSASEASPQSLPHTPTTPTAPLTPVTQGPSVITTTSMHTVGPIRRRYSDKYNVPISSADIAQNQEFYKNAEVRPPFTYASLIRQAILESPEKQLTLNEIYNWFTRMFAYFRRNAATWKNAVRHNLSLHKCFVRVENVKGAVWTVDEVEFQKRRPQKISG
In short: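 The N-terminus-lacking fragment of mouse FoxP3 or FoxP1 carried a His6-MBP tag and was expressed in E. coli. At 0.4 µM it was incubated with 0.1 µM Klenow-filled degenerate double-stranded DNA library for 30 min at room temperature in Tris pH 7.5 buffer with NaCl and MgCl2, and complexes were caught on amylose resin, washed three times, released with proteinase K, PCR-barcoded and Illumina-sequenced. Binding is reads-per-million enrichment of pull-down over input with replicates pooled.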

Sequence | binding signal
GATGATTGTTCTCCCAGCTGATGAATTATGTGCCTCGAGTAAACAAATTTTCCTAATCTTTCTGTTCAAGCGCCATCTAC | 1.15 RPM ratio (pull-down/input)
GATGATTGTTCTCCCAGCTGATGAATTGCAGGAATCGAGTAAACAAATTTTCCTAATCTTTCTGTTCAAGCGCCATCTAC | 1.19 RPM ratio (pull-down/input)
GATGATTGTTCTCCCAGCTGATGAATTATCTTTGTCGAGTAAACAAATTTTCCTAATCTTTCTGTTCAAGCGCCATCTAC | 1.13 RPM ratio (pull-down/input)
GATGATTGTTCTCCCAGCTGATGAATTGCGACCTTCGAGTAAACAAATTTTCCTAATCTTTCTGTTCAAGCGCCATCTAC | 1.04 RPM ratio (pull-down/input)
GATGATTGTTCTCCCAGCTGATGAATTATGGCACTCGAGTAAACAAATTTTCCTAATCTTTCTGTTCAAGCGCCATCTAC | 0.972 RPM ratio (pull-down/input)
GATGATTGTTCTCCCAGCTGATGAATTGCAACCGTCGAGTAAACAAATTTTCCTAATCTTTCTGTTCAAGCGCCATCTAC | 1.29 RPM ratio (pull-down/input)
GATGATTGTTCTCCCAGCTGATGAATTGGCAAAGTCGAGTAAACAAATTTTCCTAATCTTTCTGTTCAAGCGCCATCTAC | 0.842 RPM ratio (pull-down/input)
GATGATTGTTCTCCCAGCTGATGAATTTGCGATCTCGAGTAAACAAATTTTCCTAATCTTTCTGTTCAAGCGCCATCTAC | 0.924 RPM ratio (pull-down/input)
GATGATTGTTCTCCCAGCTGATGAATTCCGCATTTCGAGTAAACAAATTTTCCTAATCTTTCTGTTCAAGCGCCATCTAC | 1.06 RPM ratio (pull-down/input)
GATGATTGTTCTCCCAGCTGATGAATTTGGAAAGTCGAGTAAACAAATTTTCCTAATCTTTCTGTTCAAGCGCCATCTAC | 0.879 RPM ratio (pull-down/input)
GATGATTGTTCTCCCAGCTGATGAATTATAGTAATCGAGTAAACAAATTTTCCTAATCTTTCTGTTCAAGCGCCATCTAC | 1.7 RPM ratio (pull-down/input)
GATGATTGTTCTCCCAGCTGATGAATTGACGCCTTCGAGTAAACAAATTTTCCTAATCTTTCTGTTCAAGCGCCATCTAC | 1.11 RPM ratio (pull-down/input)
GATGATTGTTCTCCCAGCTGATGAATTACAGTGATCGAGTAAACAAATTTTCCTAATCTTTCTGTTCAAGCGCCATCTAC | 1.04 RPM ratio (pull-down/input)
GATGATTGTTCTCCCAGCTGATGAATTGGTAGAGTCGAGTAAACAAATTTTCCTAATCTTTCTGTTCAAGCGCCATCTAC | 0.874 RPM ratio (pull-down/input)
GATGATTGTTCTCCCAGCTGATGAATTAAGCCATTCGAGTAAACAAATTTTCCTAATCTTTCTGTTCAAGCGCCATCTAC | 0.989 RPM ratio (pull-down/input)
GATGATTGTTCTCCCAGCTGATGAATTCCACGTCTCGAGTAAACAAATTTTCCTAATCTTTCTGTTCAAGCGCCATCTAC | 0.806 RPM ratio (pull-down/input)
GATGATTGTTCTCCCAGCTGATGAATTGGCACCTTCGAGTAAACAAATTTTCCTAATCTTTCTGTTCAAGCGCCATCTAC | 0.842 RPM ratio (pull-down/input)
GATGATTGTTCTCCCAGCTGATGAATTCGTCAATTCGAGTAAACAAATTTTCCTAATCTTTCTGTTCAAGCGCCATCTAC | 0.981 RPM ratio (pull-down/input)
GATGATTGTTCTCCCAGCTGATGAATTTGTGGTTTCGAGTAAACAAATTTTCCTAATCTTTCTGTTCAAGCGCCATCTAC | 1.14 RPM ratio (pull-down/input)
GATGATTGTTCTCCCAGCTGATGAATTACTATGATCGAGTAAACAAATTTTCCTAATCTTTCTGTTCAAGCGCCATCTAC | 1.1 RPM ratio (pull-down/input)

Sequence | binding signal
GATGATTGTTCTCCCAGCTGATGAATTAGGAGGTTCGAGTAAACAAATTTTCCTAATCTTTCTGTTCAAGCGCCATCTAC | 0.764 RPM ratio (pull-down/input)
GATGATTGTTCTCCCAGCTGATGAATTCTGTCGATCGAGTAAACAAATTTTCCTAATCTTTCTGTTCAAGCGCCATCTAC | 0.929 RPM ratio (pull-down/input)
GATGATTGTTCTCCCAGCTGATGAATTCGCCCACTCGAGTAAACAAATTTTCCTAATCTTTCTGTTCAAGCGCCATCTAC | 0.8 RPM ratio (pull-down/input)
GATGATTGTTCTCCCAGCTGATGAATTTGTTGTGTCGAGTAAACAAATTTTCCTAATCTTTCTGTTCAAGCGCCATCTAC | 2.48 RPM ratio (pull-down/input)
GATGATTGTTCTCCCAGCTGATGAATTGGAGGGATCGAGTAAACAAATTTTCCTAATCTTTCTGTTCAAGCGCCATCTAC | 0.797 RPM ratio (pull-down/input)
GATGATTGTTCTCCCAGCTGATGAATTAAACAAATCGAGTAAACAAATTTTCCTAATCTTTCTGTTCAAGCGCCATCTAC | 2.02 RPM ratio (pull-down/input)
GATGATTGTTCTCCCAGCTGATGAATTGAGCGGATCGAGTAAACAAATTTTCCTAATCTTTCTGTTCAAGCGCCATCTAC | 0.789 RPM ratio (pull-down/input)
GATGATTGTTCTCCCAGCTGATGAATTTTACGAATCGAGTAAACAAATTTTCCTAATCTTTCTGTTCAAGCGCCATCTAC | 0.971 RPM ratio (pull-down/input)
GATGATTGTTCTCCCAGCTGATGAATTCCTCCTGTCGAGTAAACAAATTTTCCTAATCTTTCTGTTCAAGCGCCATCTAC | 0.729 RPM ratio (pull-down/input)
GATGATTGTTCTCCCAGCTGATGAATTGTCTAGGTCGAGTAAACAAATTTTCCTAATCTTTCTGTTCAAGCGCCATCTAC | 0.931 RPM ratio (pull-down/input)
GATGATTGTTCTCCCAGCTGATGAATTAGGTCTGTCGAGTAAACAAATTTTCCTAATCTTTCTGTTCAAGCGCCATCTAC | 0.793 RPM ratio (pull-down/input)
GATGATTGTTCTCCCAGCTGATGAATTCAACGGATCGAGTAAACAAATTTTCCTAATCTTTCTGTTCAAGCGCCATCTAC | 0.913 RPM ratio (pull-down/input)
GATGATTGTTCTCCCAGCTGATGAATTTGGCACATCGAGTAAACAAATTTTCCTAATCTTTCTGTTCAAGCGCCATCTAC | 1.04 RPM ratio (pull-down/input)
GATGATTGTTCTCCCAGCTGATGAATTACGTATCTCGAGTAAACAAATTTTCCTAATCTTTCTGTTCAAGCGCCATCTAC | 1.05 RPM ratio (pull-down/input)
GATGATTGTTCTCCCAGCTGATGAATTCTGAAGCTCGAGTAAACAAATTTTCCTAATCTTTCTGTTCAAGCGCCATCTAC | 0.786 RPM ratio (pull-down/input)
GATGATTGTTCTCCCAGCTGATGAATTTCTGTGCTCGAGTAAACAAATTTTCCTAATCTTTCTGTTCAAGCGCCATCTAC | 0.877 RPM ratio (pull-down/input)
GATGATTGTTCTCCCAGCTGATGAATTCCTATCTTCGAGTAAACAAATTTTCCTAATCTTTCTGTTCAAGCGCCATCTAC | 0.802 RPM ratio (pull-down/input)
GATGATTGTTCTCCCAGCTGATGAATTATTCCGGTCGAGTAAACAAATTTTCCTAATCTTTCTGTTCAAGCGCCATCTAC | 0.907 RPM ratio (pull-down/input)
GATGATTGTTCTCCCAGCTGATGAATTTATCAGATCGAGTAAACAAATTTTCCTAATCTTTCTGTTCAAGCGCCATCTAC | 1.03 RPM ratio (pull-down/input)
GATGATTGTTCTCCCAGCTGATGAATTGATTCCTTCGAGTAAACAAATTTTCCTAATCTTTCTGTTCAAGCGCCATCTAC | 1.05 RPM ratio (pull-down/input)

From paper PMC12820563, “FoxP3 forms a head-to-head dimer in vivo and stabilizes its multimerization on adjacent microsatellites”
